In the supplement of paper PMC8728848:
This is one part of the list.

What was measured:
Test in all cases: glycan array binding signal (z-score within array); higher = stronger binding
Settings in all cases: glycan notation: IUPAC condensed, linker removed
[1] = molecular target: Gal(b1-3)GlcNAc(b1-6)[Gal(b1-3)]GalNAc
Outline: (§1)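 Columns mapping to the same glycan were averaged after glycan names were converted to IUPAC-condensed notation. The data come from 3228 arrays in the Consortium for Functional Glycomics database, limited to those with an available protein sequence. Binding is reported as a within-array Z-score averaged across arrays of one protein sequence and across linkers.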

Gal(b1-3)GlcNAc6S = molecular target: Gal(b1-3)GlcNAc6S
Outline: as §1

[2] = molecular target: Gal(b1-3)[Fuc(a1-4)]GlcNAc
Outline: as §1

[3] = molecular target: Gal(b1-3)[Fuc(a1-4)]GlcNAc(b1-2)Man
Outline: as §1

[4] = molecular target: Gal(b1-3)[Fuc(a1-4)]GlcNAc(b1-2)Man(a1-3)[Gal(b1-3)[Fuc(a1-4)]GlcNAc(b1-2)Man(a1-6)]Man(b1-4)GlcNAc(b1-4)[Fuc(a1-6)]GlcNAc
Outline: as §1

[5] = molecular target: Gal(b1-3)[Fuc(a1-4)]GlcNAc(b1-3)Gal(b1-3)[Fuc(a1-4)]GlcNAc
Outline: as §1

[6] = molecular target: Gal(b1-3)[Fuc(a1-4)]GlcNAc(b1-3)Gal(b1-4)[Fuc(a1-3)]GlcNAc
Outline: as §1

[7] = molecular target: Gal(b1-3)[Fuc(a1-4)]GlcNAc(b1-6)GalNAc
Outline: as §1

[8] = molecular target: Gal(b1-3)[GlcNAc(b1-6)]GalNAc
Outline: as §1

[9] = molecular target: Gal(b1-3)[Neu5Ac(a2-6)]GalNAc
Outline: as §1

[10] = molecular target: Gal(b1-3)[Neu5Ac(a2-6)]GlcNAc(b1-4)Gal(b1-4)Glc
Outline: as §1

[11] = molecular target: Gal(b1-3)[Neu5Ac(b2-6)]GalNAc
Outline: as §1

Gal(b1-4)Gal = molecular target: Gal(b1-4)Gal
Outline: as §1

[12] = molecular target: Gal(b1-4)GalNAc(a1-3)[Fuc(a1-2)]Gal(b1-4)GlcNAc
Outline: as §1

[13] = molecular target: Gal(b1-4)GalNAc(b1-3)[Fuc(a1-2)]Gal(b1-4)GlcNAc
Outline: as §1

Gal(b1-4)Glc = molecular target: Gal(b1-4)Glc
Outline: as §1

Gal(b1-4)Glc6S = molecular target: Gal(b1-4)Glc6S
Outline: as §1

Gal(b1-4)GlcNAc = molecular target: Gal(b1-4)GlcNAc
Outline: as §1

[14] = molecular target: Gal(b1-4)GlcNAc(a1-6)Gal(b1-4)GlcNAc
Outline: as §1

Gal(b1-4)GlcNAc(b1-2)Man = molecular target: Gal(b1-4)GlcNAc(b1-2)Man
Outline: as §1

[15] = molecular target: Gal(b1-4)GlcNAc(b1-2)Man(a1-3)Man(b1-4)GlcNAc(b1-4)GlcNAc
Outline: as §1

[16] = molecular target: Gal(b1-4)GlcNAc(b1-2)Man(a1-3)[Gal(b1-4)GlcNAc(b1-2)Man(a1-6)]Man(b1-4)GlcNAc(b1-4)GlcNAc
Outline: as §1

[17] = molecular target: Gal(b1-4)GlcNAc(b1-2)Man(a1-3)[Gal(b1-4)GlcNAc(b1-2)Man(a1-6)]Man(b1-4)GlcNAc(b1-4)[Fuc(a1-6)]GlcNAc
Outline: as §1

[18] = molecular target: Gal(b1-4)GlcNAc(b1-2)Man(a1-3)[Gal(b1-4)GlcNAc(b1-2)Man(a1-6)][Gal(b1-4)GlcNAc(b1-4)]Man(b1-4)GlcNAc(b1-4)[Fuc(a1-6)]GlcNAc
Outline: as §1

[19] = molecular target: Gal(b1-4)GlcNAc(b1-2)Man(a1-3)[Gal(b1-4)GlcNAc(b1-2)Man(a1-6)][GlcNAc(b1-4)]Man(b1-4)GlcNAc(b1-4)[Fuc(a1-6)]GlcNAc
Outline: as §1

[20] = molecular target: Gal(b1-4)GlcNAc(b1-2)Man(a1-3)[GlcNAc(b1-2)Man(a1-6)]Man(b1-4)GlcNAc(b1-4)GlcNAc
Outline: as §1

[21] = molecular target: Gal(b1-4)GlcNAc(b1-2)Man(a1-3)[GlcNAc(b1-4)][Gal(b1-4)GlcNAc(b1-2)Man(a1-6)]Man(b1-4)GlcNAc(b1-4)GlcNAc
Outline: as §1

[22] = molecular target: Gal(b1-4)GlcNAc(b1-2)Man(a1-3)[Man(a1-6)]Man(b1-4)GlcNAc(b1-4)GlcNAc
Outline: as §1

[23] = molecular target: Gal(b1-4)GlcNAc(b1-2)Man(a1-6)Man(b1-4)GlcNAc(b1-4)GlcNAc
Outline: as §1

[24] = molecular target: Gal(b1-4)GlcNAc(b1-2)Man(a1-6)[GlcNAc(b1-2)Man(a1-3)]Man(b1-4)GlcNAc(b1-4)GlcNAc
Outline: as §1

[25] = molecular target: Gal(b1-4)GlcNAc(b1-2)Man(a1-6)[Man(a1-3)]Man(b1-4)GlcNAc(b1-4)GlcNAc
Outline: as §1

[26] = molecular target: Gal(b1-4)GlcNAc(b1-2)[Gal(b1-4)GlcNAc(b1-4)]Man(a1-3)[Gal(b1-4)GlcNAc(b1-2)Man(a1-6)]Man(b1-4)GlcNAc(b1-4)GlcNAc
Outline: as §1

[27] = molecular target: Gal(b1-4)GlcNAc(b1-2)[Gal(b1-4)GlcNAc(b1-4)]Man(a1-3)[Gal(b1-4)GlcNAc(b1-2)[Gal(b1-4)GlcNAc(b1-6)]Man(a1-6)]Man(b1-4)GlcNAc(b1-4)GlcNAc
Outline: as §1

[28] = molecular target: Gal(b1-4)GlcNAc(b1-2)[Gal(b1-4)GlcNAc(b1-4)]Man(a1-3)[GlcNAc(b1-4)][Gal(b1-4)GlcNAc(b1-2)Man(a1-6)]Man(b1-4)GlcNAc(b1-4)GlcNAc
Outline: as §1

[29] = molecular target: Gal(b1-4)GlcNAc(b1-2)[Gal(b1-4)GlcNAc(b1-4)]Man(a1-3)[GlcNAc(b1-4)][Gal(b1-4)GlcNAc(b1-2)[Gal(b1-4)GlcNAc(b1-6)]Man(a1-6)]Man(b1-4)GlcNAc(b1-4)GlcNAc
Outline: as §1

[30] = molecular target: Gal(b1-4)GlcNAc(b1-2)[Gal(b1-4)GlcNAc(b1-6)]Man(a1-6)[Gal(b1-4)GlcNAc(b1-2)Man(a1-3)]Man(b1-4)GlcNAc(b1-4)GlcNAc
Outline: as §1

[31] = molecular target: Gal(b1-4)GlcNAc(b1-2)[Gal(b1-4)GlcNAc(b1-6)]Man(a1-6)[Gal(b1-4)GlcNAc(b1-2)Man(a1-3)]Man(b1-4)GlcNAc(b1-4)[Fuc(a1-6)]GlcNAc
Outline: as §1

B1: SBD-G4S3-Fc (protein)
chain: MASIPSSASVQLDSYNYDGSTFSGKIYVKNIAYSKKVTVVYADGSDNWNNNGNIIAASFSGPISGSNYEYWTFSASVKGIKEFYIKYEVSGKTYYDNNNSANYQVSTGGGGSGGGGSGGGGSEFVPRDCGCKPCICTVPEVSSVFIFPPKPKDVLTITLTPKVTCVVVDISKDDPEVQFSWFVDDVEVHTAQTQPREEQFNSTFRSVSELPIMHQDWLNGKEFKCRVNSAAFPAPIEKTISKTKGRPKAPQVYTIPPPKEQMAKDKVSLTCMITDFFPEDITVEWQWNGQPAENYKNTQPIMDTDGSYFVYSKLNVQKSNWEAGNTFTCSVLHEGLHNHHTEKSLSHSPGAA
- glycan array binding signal (z-score) [1]: 0.151
- glycan array binding signal (z-score) (Gal(b1-3)GlcNAc6S): -0.378
- glycan array binding signal (z-score) [2]: -0.135
- glycan array binding signal (z-score) [3]: -0.252
- glycan array binding signal (z-score) [4]: 0.378
- glycan array binding signal (z-score) [5]: -0.26
- glycan array binding signal (z-score) [6]: -0.317
- glycan array binding signal (z-score) [7]: -0.135
- glycan array binding signal (z-score) [8]: -0.227
- glycan array binding signal (z-score) [9]: -0.564
- glycan array binding signal (z-score) [10]: -0.176
- glycan array binding signal (z-score) [11]: -0.146
- glycan array binding signal (z-score) (Gal(b1-4)Gal): 0.689
- glycan array binding signal (z-score) [12]: -0.533
- glycan array binding signal (z-score) [13]: -0.146
- glycan array binding signal (z-score) (Gal(b1-4)Glc): -0.078
- glycan array binding signal (z-score) (Gal(b1-4)Glc6S): -0.194
- glycan array binding signal (z-score) (Gal(b1-4)GlcNAc): -0.072
- glycan array binding signal (z-score) [14]: -0.002
- glycan array binding signal (z-score) (Gal(b1-4)GlcNAc(b1-2)Man): -0.114
- glycan array binding signal (z-score) [15]: 0.225
- glycan array binding signal (z-score) [16]: 0.533
- glycan array binding signal (z-score) [17]: 0.49
- glycan array binding signal (z-score) [18]: -0.433
- glycan array binding signal (z-score) [19]: 0.189
- glycan array binding signal (z-score) [20]: -0.37
- glycan array binding signal (z-score) [21]: -0.469
- glycan array binding signal (z-score) [22]: -0.401
- glycan array binding signal (z-score) [23]: -0.3
- glycan array binding signal (z-score) [24]: -0.286
- glycan array binding signal (z-score) [25]: 0.054
- glycan array binding signal (z-score) [26]: -0.068
- glycan array binding signal (z-score) [27]: -0.13
- glycan array binding signal (z-score) [28]: -0.029
- glycan array binding signal (z-score) [29]: -0.045
- glycan array binding signal (z-score) [30]: -0.105
- glycan array binding signal (z-score) [31]: -0.217
